Experimental data from a collection of fitness landscapes (doi:10.1126/science.1257360).
The list shows a part of the results.

B1: PhoQ; a variant is named by its letters at X, in order, P23837 (parent)
chain: MKKLLRLFFPLSLRVRFLLATAAVVLVLSLAYGMVALIGYSVSFDKTTFRLLRGESNLFYTLAKWENNKLHVELPENIDKQSPTMTLIYDENGQLLWAQRDVPWLMKMIQPDWLKSNGFHEIEADVNDTSLLLSGDHSIQQQLQEVREDDDDAEMTHSVAVNVYPATSRMPKLTIVVVDTIPVELKSSYMVWSWFIYVLSANLLLVIPLLWVAAWWSLRPIEALAKEVRELEEHNRELLNPATTRELTSLVRNLNRLLKSERERYDKYRTTLTDLTHSLKTPLXXLQXXLRSLRSEKMSVSDAEPVMLEQISRISQQIGYYLHRASMRGGTLLSRELHPVAPLLDNLTSALNKVYQRKGVNISLDISPEISFVGEQNDFVEVMGNVLDNACKYCLEFVEISARQTDEHLYIVVEDDGPGIPLSKREVIFDRGQRVDTLRPGQGVGLAVAREITEQYEGKIVAGESMLGGARMEVIFGRQHSAPKDE

Variants of: B1
Test: enrichment ratio after two sorts for PhoP signalling (ratio (wild type AVST 3.29)); higher = more functional
Settings: with PhoP (E. coli)

Which enrichment ratio does the source give for YQTE here?
Its enrichment ratio is no more than 0.25.

EVAF was tested. Which enrichment ratio did it give?
Its enrichment ratio is no more than 0.25.

Which enrichment ratio does the source give for STCP here?
Its enrichment ratio is no more than 0.25.

KVYY was tested. Which enrichment ratio did it give?
Its enrichment ratio is no more than 0.25.

For TCLL, which enrichment ratio is on record?
The enrichment ratio was 1.89.

Which enrichment ratio does the source give for EKVY here?
Its enrichment ratio is no more than 0.25.

With RGIG as the variant, how does the enrichment ratio read?
The enrichment ratio was no more than 0.25.

Which enrichment ratio does the source give for MPYE here?
The enrichment ratio was no more than 0.25.

With VPPQ as the variant, how does the enrichment ratio read?
The enrichment ratio was no more than 0.25.

With DWEH as the variant, how does the enrichment ratio read?
Its enrichment ratio is no more than 0.25.

LEYT was tested. Which enrichment ratio did it give?
The enrichment ratio was 11.9.

SAKQ was tested. Which enrichment ratio did it give?
Its enrichment ratio is no more than 0.25.

How did the enrichment ratio turn out when NCLY was run?
Its enrichment ratio is no more than 0.25.

For WFGC, which enrichment ratio is on record?
The enrichment ratio was no more than 0.25.

For QSCN, which enrichment ratio is on record?
Its enrichment ratio is no more than 0.25.

For GSTP, which enrichment ratio is on record?
The enrichment ratio was no more than 0.25.

For WIMV, which enrichment ratio is on record?
Its enrichment ratio is no more than 0.25.

With HTQW as the variant, how does the enrichment ratio read?
Its enrichment ratio is no more than 0.25.

Which enrichment ratio does the source give for MMCQ here?
Its enrichment ratio is 4.77.

For FHKN, which enrichment ratio is on record?
The enrichment ratio was no more than 0.25.

Which enrichment ratio does the source give for CSIS here?
The enrichment ratio was no more than 0.25.

VEAM was tested. Which enrichment ratio did it give?
The enrichment ratio was 3.2.

Which enrichment ratio does the source give for HRDR here?
Its enrichment ratio is 0.741.

For SWNC, which enrichment ratio is on record?
Its enrichment ratio is no more than 0.25.

Which enrichment ratio does the source give for ANGD here?
Its enrichment ratio is no more than 0.25.

How did the enrichment ratio turn out when FSWP was run?
Its enrichment ratio is no more than 0.25.

Which enrichment ratio does the source give for DLIH here?
Its enrichment ratio is no more than 0.25.

With TGED as the variant, how does the enrichment ratio read?
The enrichment ratio was no more than 0.25.

Which enrichment ratio does the source give for SSRV here?
Its enrichment ratio is no more than 0.25.

How did the enrichment ratio turn out when LTHQ was run?
Its enrichment ratio is no more than 0.25.

With MLNV as the variant, how does the enrichment ratio read?
The enrichment ratio was no more than 0.25.

For DIQC, which enrichment ratio is on record?
The enrichment ratio was no more than 0.25.

For KEWT, which enrichment ratio is on record?
The enrichment ratio was no more than 0.25.

VHIV was tested. Which enrichment ratio did it give?
The enrichment ratio was no more than 0.25.

With FLFG as the variant, how does the enrichment ratio read?
Its enrichment ratio is no more than 0.25.

PIST was tested. Which enrichment ratio did it give?
Its enrichment ratio is no more than 0.25.

How did the enrichment ratio turn out when SPRC was run?
Its enrichment ratio is no more than 0.25.

How did the enrichment ratio turn out when LTGD was run?
Its enrichment ratio is no more than 0.25.

Which enrichment ratio does the source give for HPIP here?
Its enrichment ratio is no more than 0.25.

LNVI was tested. Which enrichment ratio did it give?
Its enrichment ratio is no more than 0.25.

How did the enrichment ratio turn out when DEYR was run?
The enrichment ratio was no more than 0.25.

How did the enrichment ratio turn out when LCGA was run?
The enrichment ratio was no more than 0.25.

NKCM was tested. Which enrichment ratio did it give?
The enrichment ratio was no more than 0.25.

Which enrichment ratio does the source give for MRDP here?
The enrichment ratio was no more than 0.25.

How did the enrichment ratio turn out when KFMT was run?
The enrichment ratio was no more than 0.25.

For QRQI, which enrichment ratio is on record?
The enrichment ratio was no more than 0.25.

With NMCR as the variant, how does the enrichment ratio read?
The enrichment ratio was no more than 0.25.

GNYY was tested. Which enrichment ratio did it give?
The enrichment ratio was no more than 0.25.

ETWM was tested. Which enrichment ratio did it give?
The enrichment ratio was no more than 0.25.

NWVY was tested. Which enrichment ratio did it give?
Its enrichment ratio is no more than 0.25.

Which enrichment ratio does the source give for VGPN here?
The enrichment ratio was no more than 0.25.

With HWMT as the variant, how does the enrichment ratio read?
Its enrichment ratio is no more than 0.25.

How did the enrichment ratio turn out when ADVA was run?
The enrichment ratio was no more than 0.25.

MFNQ was tested. Which enrichment ratio did it give?
Its enrichment ratio is no more than 0.25.

DAIM was tested. Which enrichment ratio did it give?
Its enrichment ratio is no more than 0.25.

IWFM was tested. Which enrichment ratio did it give?
The enrichment ratio was no more than 0.25.

For TYMG, which enrichment ratio is on record?
Its enrichment ratio is 14.3.

Which enrichment ratio does the source give for IWVK here?
The enrichment ratio was no more than 0.25.

How did the enrichment ratio turn out when AWAC was run?
Its enrichment ratio is no more than 0.25.

How did the enrichment ratio turn out when HCLW was run?
The enrichment ratio was no more than 0.25.

With IGIR as the variant, how does the enrichment ratio read?
The enrichment ratio was no more than 0.25.

For FQNS, which enrichment ratio is on record?
The enrichment ratio was no more than 0.25.

How did the enrichment ratio turn out when KDTS was run?
The enrichment ratio was no more than 0.25.

How did the enrichment ratio turn out when LYSY was run?
The enrichment ratio was no more than 0.25.

How did the enrichment ratio turn out when FWLC was run?
Its enrichment ratio is no more than 0.25.

Which enrichment ratio does the source give for NSTA here?
The enrichment ratio was no more than 0.25.

For WQTS, which enrichment ratio is on record?
Its enrichment ratio is no more than 0.25.

With LLEP as the variant, how does the enrichment ratio read?
The enrichment ratio was no more than 0.25.

Which enrichment ratio does the source give for EALT here?
Its enrichment ratio is no more than 0.25.

TGTA was tested. Which enrichment ratio did it give?
The enrichment ratio was 11.1.

AAKS was tested. Which enrichment ratio did it give?
Its enrichment ratio is no more than 0.25.

With WRAM as the variant, how does the enrichment ratio read?
The enrichment ratio was no more than 0.25.

PWNQ was tested. Which enrichment ratio did it give?
The enrichment ratio was no more than 0.25.

With LVIW as the variant, how does the enrichment ratio read?
The enrichment ratio was no more than 0.25.

How did the enrichment ratio turn out when SKVG was run?
Its enrichment ratio is no more than 0.25.

How did the enrichment ratio turn out when RRCR was run?
Its enrichment ratio is no more than 0.25.

With FNNY as the variant, how does the enrichment ratio read?
Its enrichment ratio is no more than 0.25.

How did the enrichment ratio turn out when ANQR was run?
Its enrichment ratio is no more than 0.25.

With SGVN as the variant, how does the enrichment ratio read?
Its enrichment ratio is 16.8.

Which enrichment ratio does the source give for AGGA here?
The enrichment ratio was 0.444.

With WYYP as the variant, how does the enrichment ratio read?
Its enrichment ratio is no more than 0.25.

For SGCV, which enrichment ratio is on record?
Its enrichment ratio is 15.2.

DFKV was tested. Which enrichment ratio did it give?
Its enrichment ratio is no more than 0.25.

With MYQP as the variant, how does the enrichment ratio read?
Its enrichment ratio is no more than 0.25.

For NTAA, which enrichment ratio is on record?
The enrichment ratio was no more than 0.25.

For HKQL, which enrichment ratio is on record?
The enrichment ratio was no more than 0.25.

How did the enrichment ratio turn out when KINH was run?
Its enrichment ratio is no more than 0.25.

LFWK was tested. Which enrichment ratio did it give?
Its enrichment ratio is no more than 0.25.

For RAWD, which enrichment ratio is on record?
Its enrichment ratio is no more than 0.25.

For DTDI, which enrichment ratio is on record?
Its enrichment ratio is no more than 0.25.

How did the enrichment ratio turn out when SVGQ was run?
Its enrichment ratio is 2.73.

With MCTS as the variant, how does the enrichment ratio read?
The enrichment ratio was 1.34.

WRGE was tested. Which enrichment ratio did it give?
The enrichment ratio was no more than 0.25.

Which enrichment ratio does the source give for RLSK here?
The enrichment ratio was no more than 0.25.

For KDPH, which enrichment ratio is on record?
Its enrichment ratio is no more than 0.25.

With KSKE as the variant, how does the enrichment ratio read?
The enrichment ratio was no more than 0.25.

Which enrichment ratio does the source give for HFYK here?
Its enrichment ratio is 0.61.
